# Experimental data: a collection of fitness landscapes (doi:10.1016/j.celrep.2020.107928)
# The full ranking holds about 81,000 sequences; the median of “one-hybrid fitness for binding parS DNA” is about -0.17, and the highest 2% start at about 0.51. The list shows a part of the results.
# B1: Caulobacter ParB omega fusion; a variant is named by its letters at X, in order, B8GW30 (parent)
# chain: MESVVVGEPGMSEGRRGLGRGLSALLGEVDAAPAQAPGEQLGGSREAPIEILQRNPDQPRRTFREEDLEDLSNSIREKGVLQPILVRPSPDTAGEYQIVAGERAWRAAQRAGLKTVPIMVRELDDLAVLEIGIIENVQRADLNVLEEALSYKVLMEKFERTQENIAQTIGKSXSHVANXMRLLXLPDEVQSYLVSGELTAXHARAIAAAADPVALAKQIIEGGLSVRETEALARKAPNLSAGKSKGGRPPRVKDTDTQALESDLSSVLGLDVSIDHRGSTGTLTITYATLEQLDDLCNRLTRGI
# Variants of: B1
# Assay: one-hybrid fitness for binding parS DNA (scaled: cognate 1, non-cognate 0); higher = stronger binding
# Details: with parS DNA site
# Outline: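 On M9-minus-histidine containing 0.1 mM IPTG and 5 mM 3-AT, E. coli USO cells with a HIS3 reporter, site 19 bp from the promoter, grew 48 hours at 37°C to select Caulobacter ParB libraries randomised at four specificity codons. Plasmids from before and after were Illumina-sequenced, with three replicate libraries pooled and variants under 10 reads left out. Fitness is the log change in variant-to-wild-type read ratio, rescaled against cognate and non-cognate.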
row,Variant,one-hybrid fitness for binding parS DNA
1,TVRF,≤ 0.2
2,NYST,≤ 0.2
3,LTKE,≤ 0.2
4,PHCW,≤ 0.2
5,QCPC,≤ 0.2
6,HREL,≤ 0.2
7,ISMG,≤ 0.2
8,DMRR,≤ 0.2
9,APWP,≤ 0.2
10,HFRF,≤ 0.2
11,SYER,≤ 0.2
12,LHTE,≤ 0.2
13,KMSS,≤ 0.2
14,FLHR,≤ 0.2
15,MLWF,0.204
16,VNHG,≤ 0.2
17,MGLP,≤ 0.2
18,QMTT,≤ 0.2
19,CNWG,≤ 0.2
20,GMMR,≤ 0.2
21,TLCE,≤ 0.2
22,SMSY,≤ 0.2
23,VPEK,≤ 0.2
24,ILSW,≤ 0.2

row,Variant,one-hybrid fitness for binding parS DNA
1,TLKW,≤ 0.2
2,MNDC,≤ 0.2
3,KNTL,≤ 0.2
4,QSSD,≤ 0.2
5,MSVT,≤ 0.2
6,LYPT,≤ 0.2
7,VMCG,≤ 0.2
8,NFMR,≤ 0.2
9,YEAF,≤ 0.2
10,RAAE,≤ 0.2
11,EVGC,≤ 0.2
12,PALD,≤ 0.2
13,GATV,≤ 0.2
14,QHIM,≤ 0.2
15,ITTI,≤ 0.2
16,YDYM,≤ 0.2
17,GISY,≤ 0.2
18,NWRG,≤ 0.2
19,QREA,≤ 0.2
20,DTWG,≤ 0.2
21,RLYL,≤ 0.2
22,EMAT,≤ 0.2
23,AKDK,≤ 0.2
24,RKNY,0.358

row,Variant,one-hybrid fitness for binding parS DNA
1,TGDF,≤ 0.2
2,SPIP,≤ 0.2
3,QFKC,≤ 0.2
4,DGIS,≤ 0.2
5,KRHY,≤ 0.2
6,EAER,≤ 0.2
7,SGLY,≤ 0.2
8,NQSS,≤ 0.2
9,HSVL,≤ 0.2
10,HRME,≤ 0.2
11,HGDR,≤ 0.2
12,SRTY,≤ 0.2
13,MSSH,≤ 0.2
14,KRMQ,≤ 0.2
15,CWKP,≤ 0.2
16,WGLT,≤ 0.2
17,RWPS,0.444
18,REMG,≤ 0.2
19,HAKP,≤ 0.2
20,EGTS,≤ 0.2
21,QLGM,≤ 0.2
22,PNLN,≤ 0.2
23,VSLD,≤ 0.2
24,NHDR,≤ 0.2

row,Variant,one-hybrid fitness for binding parS DNA
1,QKRR,≤ 0.2
2,LNQW,≤ 0.2
3,PFVA,≤ 0.2
4,LLWT,≤ 0.2
5,SHKG,≤ 0.2
6,HSRY,≤ 0.2
7,ESTI,≤ 0.2
8,FNMT,≤ 0.2
9,QTEG,≤ 0.2
10,TVSR,≤ 0.2
11,PHWA,≤ 0.2
12,IESM,≤ 0.2
13,QKDV,≤ 0.2
14,DPRK,≤ 0.2
15,CGFR,≤ 0.2
16,SHPK,≤ 0.2
17,YIIG,≤ 0.2
18,AYYA,≤ 0.2
19,ELMR,≤ 0.2
20,NTYW,≤ 0.2
21,AQDP,≤ 0.2
22,YTLL,≤ 0.2
23,TLFL,≤ 0.2
24,QATE,≤ 0.2

row,Variant,one-hybrid fitness for binding parS DNA
1,GRNE,≤ 0.2
2,DLQW,≤ 0.2
3,AYGS,≤ 0.2
4,NWFS,≤ 0.2
5,WSLA,≤ 0.2
6,CTPA,≤ 0.2
7,PCAH,≤ 0.2
8,SWYG,≤ 0.2
9,NCKH,≤ 0.2
10,GPNA,≤ 0.2
11,MCQG,≤ 0.2
12,PNVE,≤ 0.2
13,FFKR,≤ 0.2
14,KQYG,≤ 0.2
15,DVFC,≤ 0.2
16,PCTY,≤ 0.2
17,MRCE,≤ 0.2
18,LYRY,≤ 0.2
19,RKNT,0.723
20,SNYC,≤ 0.2
21,YQMA,≤ 0.2
22,PVSR,≤ 0.2
23,VHHC,≤ 0.2
24,ILYN,≤ 0.2

row,Variant,one-hybrid fitness for binding parS DNA
1,AMWR,≤ 0.2
2,NFPG,≤ 0.2
3,QCYG,≤ 0.2
4,PIAL,≤ 0.2
5,SFSS,≤ 0.2
6,SIAM,≤ 0.2
7,HYTR,≤ 0.2
8,QNQL,≤ 0.2
9,KARN,≤ 0.2
10,MTKQ,≤ 0.2
11,LIQC,≤ 0.2
12,FTKC,≤ 0.2
13,QWLL,≤ 0.2
14,RAEI,≤ 0.2
15,LWVG,≤ 0.2
16,PTSE,≤ 0.2
17,DQNF,≤ 0.2
18,HNTN,≤ 0.2
19,RVDP,≤ 0.2
20,ARMT,≤ 0.2
21,RNDD,≤ 0.2
22,TTWD,≤ 0.2
23,VEHY,≤ 0.2
24,VNKN,≤ 0.2

row,Variant,one-hybrid fitness for binding parS DNA
1,RQDD,≤ 0.2
2,ALMT,≤ 0.2
3,VLRD,≤ 0.2
4,AVVY,≤ 0.2
5,VYPC,≤ 0.2
6,MFLG,≤ 0.2
7,TAVS,≤ 0.2
8,MRNS,≤ 0.2
9,PLTK,≤ 0.2
10,TNPH,≤ 0.2
11,KLPC,≤ 0.2
12,ALKR,≤ 0.2
13,REMK,≤ 0.2
14,HASI,≤ 0.2
15,WSCR,≤ 0.2
16,YIRR,≤ 0.2
17,KASV,≤ 0.2
18,HSST,≤ 0.2
19,PFKE,≤ 0.2
20,RRRR,≤ 0.2
21,FHPS,≤ 0.2
22,AEEY,≤ 0.2
23,GGRR,≤ 0.2
24,HVSY,≤ 0.2

row,Variant,one-hybrid fitness for binding parS DNA
1,QHQV,≤ 0.2
2,PYDN,≤ 0.2
3,NDIV,≤ 0.2
4,RGMW,≤ 0.2
5,RFQH,≤ 0.2
6,VKIS,≤ 0.2
7,PHQL,≤ 0.2
8,HRRV,≤ 0.2
9,RALD,≤ 0.2
10,NPSH,≤ 0.2
11,QLVF,≤ 0.2
12,LPYN,≤ 0.2
13,ELRG,≤ 0.2
14,SPTL,≤ 0.2
15,QLRN,≤ 0.2
16,PTMQ,≤ 0.2
17,RGTA,0.376
18,MLAD,≤ 0.2
19,CYLC,≤ 0.2
20,NHTV,≤ 0.2
21,TSPF,≤ 0.2
22,LSYM,≤ 0.2
23,CASS,≤ 0.2
24,AFAG,≤ 0.2

row,Variant,one-hybrid fitness for binding parS DNA
1,PSGA,≤ 0.2
2,SHIP,≤ 0.2
3,HHLI,≤ 0.2
4,EAPW,≤ 0.2
5,RCPY,0.276
6,HAGF,≤ 0.2
7,ESLR,≤ 0.2
8,GAEP,≤ 0.2
9,ELPK,≤ 0.2
10,RLFM,0.369
11,CWIR,≤ 0.2
12,PGWR,≤ 0.2
13,HLDG,≤ 0.2
14,HSLW,≤ 0.2
15,FGAT,≤ 0.2
16,MFRK,≤ 0.2
17,AYQG,≤ 0.2
18,PAIM,≤ 0.2
19,AVYR,≤ 0.2
20,NKVR,≤ 0.2
21,RKEP,≤ 0.2
22,YSLR,≤ 0.2
23,SKIL,≤ 0.2
24,IPMD,≤ 0.2

row,Variant,one-hybrid fitness for binding parS DNA
1,TQKA,≤ 0.2
2,CSPP,≤ 0.2
3,FHKL,≤ 0.2
4,PNAN,≤ 0.2
5,DTPR,≤ 0.2
6,RKQR,≤ 0.2
7,ECKR,≤ 0.2
8,NWAR,≤ 0.2
9,WWCY,≤ 0.2
10,QHSH,≤ 0.2
11,DPLE,≤ 0.2
12,LTCC,≤ 0.2
13,EKCC,≤ 0.2
14,TRGE,≤ 0.2
15,TKAF,≤ 0.2
16,KHVM,≤ 0.2
17,LVVV,≤ 0.2
18,YTRS,≤ 0.2
19,SNVG,≤ 0.2
20,GGSP,≤ 0.2
21,HTKF,≤ 0.2
22,FPTT,≤ 0.2
23,CRHK,≤ 0.2
24,QPSE,≤ 0.2

row,Variant,one-hybrid fitness for binding parS DNA
1,MRNR,≤ 0.2
2,HIES,≤ 0.2
3,IDDR,≤ 0.2
4,QPAF,≤ 0.2
5,TSTH,≤ 0.2
6,MLRE,≤ 0.2
7,PCSK,≤ 0.2
8,YTTF,≤ 0.2
9,VQHI,≤ 0.2
10,DVDC,≤ 0.2
11,TFLK,≤ 0.2
12,RWAV,≤ 0.2
13,WSED,≤ 0.2
14,HGAD,≤ 0.2
15,GRTE,≤ 0.2
16,ERKR,≤ 0.2
17,ALGL,≤ 0.2
18,NTDR,≤ 0.2
19,GSIA,≤ 0.2
20,WEIL,≤ 0.2
21,DSNG,≤ 0.2
22,RYDY,0.422
23,ACPY,≤ 0.2
24,ERHV,≤ 0.2

row,Variant,one-hybrid fitness for binding parS DNA
1,TTEN,≤ 0.2
2,RKCV,≤ 0.2
3,LQAL,≤ 0.2
4,SCKS,≤ 0.2
5,DAWC,≤ 0.2
6,CNGV,≤ 0.2
7,RTLP,≤ 0.2
8,LHEV,≤ 0.2
9,QSQT,≤ 0.2
10,QYMM,≤ 0.2
11,VFTY,≤ 0.2
12,SIGM,≤ 0.2
13,HYWS,≤ 0.2
14,VVRA,≤ 0.2
15,YLAW,≤ 0.2
16,QCRL,≤ 0.2
17,DRRF,≤ 0.2
18,RLLY,0.505
19,SPKV,≤ 0.2
20,VICC,≤ 0.2
21,QSGI,≤ 0.2
22,HIHT,≤ 0.2
23,RDSV,≤ 0.2
24,PNVC,≤ 0.2

row,Variant,one-hybrid fitness for binding parS DNA
1,KREK,≤ 0.2
2,RICH,0.24
3,TMLG,≤ 0.2
4,VCLV,≤ 0.2
5,PNDN,≤ 0.2
6,PRKS,≤ 0.2
7,RCGI,≤ 0.2
8,LLNI,≤ 0.2
9,QLQW,≤ 0.2
10,NPER,≤ 0.2
11,IMAM,≤ 0.2
12,QLQQ,≤ 0.2
13,ICGY,≤ 0.2
14,GIRG,≤ 0.2
15,TAGC,≤ 0.2
16,MWRR,≤ 0.2
17,SPTW,≤ 0.2
18,ASWV,≤ 0.2
